# The other results are listed elsewhere or left out.
# Tested on: PfHDP1 homeodomain (GST-tagged)
# Assay: gcPBM binding intensity (ln(normalized median fluorescence intensity)); higher = stronger DNA binding
# Outline: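 DNA-binding domains from P. falciparum, fused to GST and produced in E. coli, were put on an Agilent 4 × 180k double-stranded probe array for 1 h in 1× PBS holding 1% milk, 0.2 mg/ml BSA, 0.5% salmon testes DNA and 0.03% Triton X-100. Probes were primer-extended, 36 bp long and drawn from intergenic genomic regions, with negative controls included. After Alexa488 anti-GST antibody detection and a 488 nm scan, binding intensity was set as the highest Masliner-normalised natural-log median intensity across replicate spots of either probe orientation.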
row,Sequence,gcPBM binding intensity (ln)
1,AAAATATTTATTCCTAGTACTTACCATTATATATAT [XGTACX_site363],6.84
2,AAAAAAAAATGAAAAGAAAAAAAAAGAAAAAAGGGA [CACACA_negctrl_site287],6.32
3,ATTATTTATATTTGGAGTACTTATAATATTTTTATA [XGTACX_site1289],6.67
4,AAAAAAAAAAAAAAAACACACAAACGCTTTTTTTTT [CACACA_site4545],6.73
5,GGATAAGAGGCATATACACACAATTTAAAAAAATAA [CACACA_site4657],6.63
6,ATTTTTTTGTTAATTTGTACATAAAATTTTATTTTA [XGTACX_site7007],6.67
7,ATATTTATTTTATAAAGTACTAAAAAATATATTATA [XGTACX_site8522],6.31
8,ATGTCATAAAAACATATACACACTTGAAATATAAAA [CACACA_site2329],6.55
9,CATTCCTATTATTATACACACAAATTAAGAATTCAA [CACACA_site787],6.81
10,TATAATATATTCATGTGTACATATATTTCGAACATA [XGTACX_site1754],6.71
11,ATAAATATTGCGTGCACACACATAATATTTATATAT [CACACA_site7136],10.3
12,CGAAAAATATGTATGAGTACTTATATTTAAACTATA [XGTACX_site1911],6.26
13,ATATGTACAAATTATACACACATGTACAATTATATA [CACACA_site1253],6.91
14,AAAAAAAAAAAAGAAAAATATATATATAAATAAATA [GTGCAC_negctrl_site569],6.34
15,ATGTCACAATTTTTCACACACAAAATTTATATACAT [CACACA_site2030],6.9
16,TATGTTTCTATATATACATGCAAGAAGAAATGTACT [TGCATGCA_site891],6.65
17,TCTTAAATTATGATAAAATATAATAAATAAATAAAT [CACACA_negctrl_site1520],6.11
18,TTGTTTTATACATAGTGTACATATAAAAATTTTTTT [XGTACX_site7549],6.63
19,ATATATATTATAATCTGTACATAAATATATAATAAA [XGTACX_site5425],6.3
20,ATATATAAATATGAAACACACATTCTATTTAATTCG [CACACA_site1450],6.19
21,CAGATAAATAAACACACACACACATATATATATATA [CACACA_site9311],9.25
22,ATTTTCCCTAGAATATGTACACATAGTAAATATTAT [XGTACX_site7499],6.34
23,AAATAAAGAAATGCAAGTACATACTAAACTAATCCA [XGTACX_site1209],6.57

row,Sequence,gcPBM binding intensity (ln)
1,TATGTTTTTGAATGAGTGCATTAAAATAAAACATTT,8.9
2,TTCTTGTATATTCATAGTACATATAATGTCGTGTTA [XGTACX_site8991],6.58
3,TAATAAGGAATTTATAGTACATATTCATATGTTTTA [XGTACX_site2331],5.79
4,ATAATATAAATATACACACACACATATATATATATA [CACACA_site2905],9.28
5,ATAAAAATTTATATATGTACTTAATTTTTAATTTTT [XGTACX_site7482],5.98
6,GAATATTAATTCAAGTGTACAAATATATATATAATT [XGTACX_site5103],6.78
7,CAAAAGGATAGGCACACACACACACCGATATATATA [CACACA_site8685],6.84
8,GTTAATATTTTTGGGGGTACTTAAAAAAAAAAAAAA [XGTACX_site1477],7.2
9,AATTTAAAAAATAATTGTACAAAAAAAAAAAATCAG [XGTACX_site4576],6.65
10,TTACATACAATTGGTGTGCACATATATATATATATA,10.3
11,TAATTATTTGCCCTTACTCTGAACATTCGGAATTTA [CACACA_negctrl_site1278],6.49
12,TTTTAATATTAAGATGTCTTTTACGTTTATTTTGTA [CACACA_negctrl_site765],6.54
13,ATTTACGCGCTTATTACACACACATACAAATAAGGA [CACACA_site9157],7.07
14,TTCTTTTTAAATTACACACACATATAAATATGTATA [CACACA_site7618],7.15
15,ATCTGCATATATATATGTACATATTTTAGAATGCAC [XGTACX_site708],6.92
16,TTTTTATAAAATTTTATGAGCTCGGAAAAAATAAAC [GTGCAC_negctrl_site637],7.35
17,TTTTTTTTATTTTGTTGTACGCTTATTTGTATATAT [XGTACX_site7325],6.8
18,TTTATGTGTTATAAATGTACATAATATAATTCGTAT [XGTACX_site3845],6.39
19,TTATCTATAAATACGAGTACGCAAAATCATATAATA [XGTACX_site2447],6.7
20,CCACAAGTATATAGTAGTACAATTTTTTTCTCTTTA [XGTACX_site4403],6.12
21,ATATAAGGATAACCTAGTACATATTATATGAAACAA [XGTACX_site8459],6.57
22,AAAATAAATAAATAAATATATATATATATATATATA [TGCATGCA_negctrl_site558],9.33
23,CAATTAAAATGCAACGGTACACATAAAAAAAATAAA [XGTACX_site6216],7.26

row,Sequence,gcPBM binding intensity (ln)
1,AAGGGGAAAAAAAAAAGTACACAAACATAGGATAAT [XGTACX_site377],6.82
2,TACGGTAAATAGTGTTGTACGATACAATTGTTTTCT [XGTACX_site8118],6.21
3,TGTATTATATGTAAATGTACATTTAATATTTTATAT [XGTACX_site4461],6.7
4,TATATATAATATATATATATGGAAATTCTTTTAAAT [XGTACX_negctrl_site50],6.68
5,GTATGAAATTATAATAGTACATATAAATAAAAAAAA [XGTACX_site8955],6.59
6,GTAGGCATTAAAAAATGTACAAAATATTATGAATTG [XGTACX_site1615],6.32
7,ACAATATCTAGATACACACACATATCTCTCAATCTA [CACACA_site656],6.63
8,TATAATATTCTATATGCATGTACACCATTCTTTATT [TGCATGCA_site688],7.24
9,TTTTTTTTTATTTGTTGTACGAGGTTTTAAAATTTT [XGTACX_site106],6.64
10,TAATAAAACATATATACACACATTATATATACATAT [CACACA_site8495],6.62
11,AAAAAGGTTATTGGTACACACATATGTATATAAATA [CACACA_site6402],6.69
12,TATTGTTATCTTTTATGTACTTAAAAAAATAAATTT [XGTACX_site4233],6.34
13,TTACAAATAATTTGTTGTACGCTTTTTTTCTTTTTT [XGTACX_site7199],6.52
14,TATATATATATATATGTGCGCATTACTTTAAGAATA,9.47
15,GTTAAAAAAAGGAGAGATCTCACACAAATATATATA [GTGCAC_negctrl_site117],6.69
16,GGGTGCCAAATTAGCACACACATATATACCTGAATT [CACACA_site5551],7.52
17,AATATATATGAAAAAAGTACTCAAGGAATAAAAAAA [XGTACX_site7720],7.06
18,CATTTAATAATAACAAGTACACAAAGATGTATAACA [XGTACX_site8315],6.14
19,CATAAATACTATATATGTACGTAATTTTTAAAACAT [XGTACX_site7710],6.93
20,ATGATAAATATAAGTTGTACATATATCTATGTGCAT [XGTACX_site6010],7.21
21,TAAAAAGTTATATTCACACACATACACATATAAATA [CACACA_site6398],6.63
22,AAAAAGGAAATAATAACACACATTAATAATTATAAA [CACACA_site3401],6.45
23,TTATTTTTTTTTTTTTGTACACAATTTGACACATTA [XGTACX_site7983],6.68

row,Sequence,gcPBM binding intensity (ln)
1,TTTATTTAATTATGTTGTACATGTAGGATTTATTTT [XGTACX_site7078],6.47
2,TCTGTTCTTTTTTAATGTACAAGAAATATAAAATTC [XGTACX_site3600],6.17
3,AATTTTTAGTATATAACATAAAATAAAATAAAATAA [GTGCAC_negctrl_site696],6.47
4,TAATAAATAATGGTTACACACAAAATATAAAACTTA [CACACA_site3544],6.24
5,AATTATAAATCTTGCACACAAAAAAAATAATAAAAA [CACACA_site2434],8.67
6,AAATCTTTGTGTGGATGTACTTTTATAAAAAAGAAT [XGTACX_site3830],6.53
7,TAAACACATATATAGACATGCAACTAGTTTTTATAA [TGCATGCA_site474],6.5
8,TTTTAAATATGCAGATGTACATTATAATGTTTTATT [XGTACX_site2079],6.82
9,TACATATTTTTATATACACACAATAATTATTATAAA [CACACA_site1659],6.75
10,TATATTTATTATAACACACACATATATATATTATAT [CACACA_site1061],6.66
11,GATATGTACTAATACACACACATATAGATTTATATA [CACACA_site6610],6.96
12,TACACATACACATACACACGCATAGAAACATACGAA [CACACA_site2137],7.17
13,TATGAAAATGTTCATACACACATAAAAAAAAAAAAA [CACACA_site3236],6.53
14,AAAAAAAAAAAAAACACACAAACGCTTTTTTTTTTT [CACACA_site686],6.7
15,TGTTTGAATAACAAAAAAAAAAAAAAAATTAAAAAA [CACACA_negctrl_site1332],5.71
16,ATTTTAAATGTTATGCGTACATATTAATCCTACTTA [XGTACX_site1344],6.69
17,TTTTAAAAATCTATATGTACACAATACGTCTATAAA [XGTACX_site5787],6.44
18,TTTTTATATATCACGTGTACATATTTATTTTTACTC [XGTACX_site8049],6.54
19,GAATCATCCAAAATTGCATGCAAGGAAGAAGAAAAA [TGCATGCA_site764],7.05
20,ATATGTAATAATAAATGTACGAAACATTGAACGATG [XGTACX_site1266],6.83

# — the supplement of paper PMC11417369
